Laboratory results taken from paper PMC4336329 (PLoS ONE, 2015).
In all, about 310,000 compounds went through this assay and about 14,000 (4.5%) showed an effect of 50% or more. Effects have a minus sign here. The list shows a part of the results.

target: human ether-à-go-go-related gene (hERG) potassium channel (human, UniProt Q12809); assay: primary screen, population patch clamp on CHO cells stably expressing hERG
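Also: peak tail current of the secondary pulse compared with the same well before compound.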

human ether-à-go-go-related gene (hERG) potassium channel, sequence (Q12809 whole entry, looked up): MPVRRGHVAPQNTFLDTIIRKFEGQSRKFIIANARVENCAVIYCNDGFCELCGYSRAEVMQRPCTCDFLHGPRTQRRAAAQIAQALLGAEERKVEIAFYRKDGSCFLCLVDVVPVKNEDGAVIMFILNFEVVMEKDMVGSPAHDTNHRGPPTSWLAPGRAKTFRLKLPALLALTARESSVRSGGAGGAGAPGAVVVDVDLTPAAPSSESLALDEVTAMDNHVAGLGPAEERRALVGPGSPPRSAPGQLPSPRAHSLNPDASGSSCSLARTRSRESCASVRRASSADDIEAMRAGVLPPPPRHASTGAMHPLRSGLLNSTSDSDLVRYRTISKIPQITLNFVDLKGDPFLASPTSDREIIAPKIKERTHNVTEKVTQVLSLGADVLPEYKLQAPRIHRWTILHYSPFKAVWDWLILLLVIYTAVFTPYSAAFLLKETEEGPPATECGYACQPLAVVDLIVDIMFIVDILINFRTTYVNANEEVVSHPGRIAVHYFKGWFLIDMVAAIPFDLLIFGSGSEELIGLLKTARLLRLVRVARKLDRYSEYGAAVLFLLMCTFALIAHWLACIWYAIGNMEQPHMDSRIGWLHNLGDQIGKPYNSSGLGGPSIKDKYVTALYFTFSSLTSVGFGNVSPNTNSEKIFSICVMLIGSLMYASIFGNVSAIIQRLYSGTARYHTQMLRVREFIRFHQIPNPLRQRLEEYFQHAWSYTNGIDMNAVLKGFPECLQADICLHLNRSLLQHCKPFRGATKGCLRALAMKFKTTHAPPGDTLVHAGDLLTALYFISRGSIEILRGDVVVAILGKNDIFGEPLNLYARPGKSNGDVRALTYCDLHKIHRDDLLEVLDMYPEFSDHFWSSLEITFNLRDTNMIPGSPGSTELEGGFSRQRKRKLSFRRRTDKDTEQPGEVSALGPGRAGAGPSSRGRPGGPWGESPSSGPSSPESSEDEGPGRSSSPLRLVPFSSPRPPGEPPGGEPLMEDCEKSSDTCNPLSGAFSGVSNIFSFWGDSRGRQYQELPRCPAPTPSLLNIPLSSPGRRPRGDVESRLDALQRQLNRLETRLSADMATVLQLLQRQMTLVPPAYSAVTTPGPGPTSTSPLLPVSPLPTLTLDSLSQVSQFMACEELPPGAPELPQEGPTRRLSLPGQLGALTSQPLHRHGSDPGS

Going from C=CCOc1ccc(/C=C\c2nc(O)c([N+](=O)[O-])c(=O)[nH]2)cc1OC to COc1cc2c(cc1OC)C(c1c(Cl)cccc1Cl)NC(=O)C2 (centres unmarked), the “hERG current change (%, negative = inhibition) at 10uM” value rises from 10.7% to 18.4%.

First: CN(C)c1ccc(C2NC(=O)c3ccccc3N2)cc1 (centres unmarked)
Second: Cc1nc2ccccc2cc1OCc1ccc(F)cc1
The “hERG current change (%, negative = inhibition) at 10uM” value of the first is higher: 16.5% for the first, -0.607% for the second.

First: Cc1cc(C)cc(OCC(=O)O/N=C(\N)Cc2ccc([N+](=O)[O-])cc2)c1
Second: O=[N+]([O-])c1ccc(N/N=C/c2ccc[nH]2)cc1
The “hERG current change (%, negative = inhibition) at 10uM” value of the first is higher: -2.56% for the first, -8.38% for the second.

First: CC1CC2(NC(=O)NC2=O)C(C)CN1C (centres unmarked)
Second: CC(C)CC1NC(=O)N(CC(=O)Nc2ccc3c(c2)CCC3)C1=O (centres unmarked)
The “hERG current change (%, negative = inhibition) at 10uM” value of the first is higher: 17.6% for the first, 0.892% for the second.

Compared with Cc1ccc(S(=O)(=O)c2nc(-c3cccs3)oc2NCCCN(C)C)cc1, Cc1ccc(NC(=S)N(CCN(C)C)C(C)c2cccnc2)cc1 (centres unmarked) is higher in “hERG current change (%, negative = inhibition) at 10uM” value: -67.8% for the first, -41.8% for the second.

First: O=C(c1cccc(S(=O)(=O)N2CCCC2)c1)N1CCCc2ccccc21
Second: COCCn1c(N)c(C(=O)c2cccc(S(=O)(=O)N3CCCCCC3)c2)c(=O)[nH]c1=O
The “hERG current change (%, negative = inhibition) at 10uM” value of the first is higher: -15.6% for the first, -46.7% for the second.

Compared with CC(Sc1n[nH]c(=O)n1Cc1ccccc1)C(=O)NC1CCCCC1C (centres unmarked), COC(c1ccccc1)c1nnc(CCC(=O)N(C)C(C2CC2)C2CC2)o1 (centres unmarked) is lower in “hERG current change (%, negative = inhibition) at 10uM” value: 4.27% for the first, -7.83% for the second.

First: CNS(=O)(=O)c1cc(OC)ccc1OC
Second: COc1ccc(CCNC(=O)c2ccc(C)s2)cc1OC
The “hERG current change (%, negative = inhibition) at 10uM” value of the first is higher: 13.2% for the first, 11.1% for the second.

Compared with O=C(Nc1ccc(Cl)cc1)Nc1cc([N+](=O)[O-])ccc1F, Cc1ccc(CCC(=O)Nc2ccc(Cl)cc2)o1 is higher in “hERG current change (%, negative = inhibition) at 10uM” value: 5.04% for the first, 12.8% for the second.

Going from CC(C)=NOCC(=O)Nn1c(COc2ccccc2)nc2ccccc2c1=O to Cc1cc2ccccc2c(=O)n1CC(=O)NCC(=O)N(C)Cc1ccccc1, the “hERG current change (%, negative = inhibition) at 10uM” value falls from 15.3% to 9.2%.

Compared with Cc1ccc(C(=O)CSc2cc(C)nc(SCC(=O)c3ccccc3)n2)cc1, NC(=O)COC(=O)c1ccc(C(=O)C(=O)c2ccccc2)cc1 is higher in “hERG current change (%, negative = inhibition) at 10uM” value: 7.9% for the first, 11.3% for the second.

First: Cc1nn(C(C)C(=O)NCc2ccco2)c(C)c1[N+](=O)[O-] (centres unmarked)
Second: CCN(CC)S(=O)(=O)c1ccc2oc(C(=O)NC(C)C)c(C)c2c1
The “hERG current change (%, negative = inhibition) at 10uM” value of the first is higher: 9.83% for the first, 0.758% for the second.

Compared with COc1ccccc1C(=O)Nc1ccc2c(c1)CCCN2C(=O)c1cccs1, COC(=O)c1ccccc1Oc1ccc(NC(=O)c2ccco2)cc1 is lower in “hERG current change (%, negative = inhibition) at 10uM” value: -1% for the first, -21.3% for the second.

First: O=C(/N=C1\NC(=O)C(F)(C(F)(F)F)S1)NC1CCCCC1 (centres unmarked)
Second: C/C(CC(=O)Nc1ccc([N+](=O)[O-])cc1)=N/NC(=O)C1C2CCCCC21 (centres unmarked)
The “hERG current change (%, negative = inhibition) at 10uM” value of the first is higher: 13% for the first, -21.7% for the second.

First: COc1ccc(-n2c(SCC(N)=O)nnc2-c2cccnc2)cc1
Second: COc1ccc(C2=NN(C(=O)CSc3nnc(C)n3C)C(c3ccco3)C2)cc1 (centres unmarked)
The “hERG current change (%, negative = inhibition) at 10uM” value of the first is higher: 11.4% for the first, -0.173% for the second.

Going from Cl.OCCNc1nc(Nc2ccccc2)nc2ccccc12 to COc1ccccc1CNC(=O)c1cc(C)nc2ccccc12, the “hERG current change (%, negative = inhibition) at 10uM” value rises from -35% to 12%.

First: CSc1ccc(/C=N/N2CCN(C)CC2)cc1.Cl
Second: CCOc1ncccc1C(=O)N1CCN(c2cc(Cl)ccc2C)CC1
The “hERG current change (%, negative = inhibition) at 10uM” value of the first is lower: -5.91% for the first, -4.75% for the second.

Going from CCOC(=O)c1cn(CC)c2cc(F)c(F)cc2c1=O to CCCCn1c(N)c(N(CC)C(=O)c2ccc([N+](=O)[O-])c(C)c2)c(=O)[nH]c1=O, the “hERG current change (%, negative = inhibition) at 10uM” value rises from 3.48% to 23.1%.

Going from c1ccc(OCCOc2ccccc2-c2nnco2)cc1 to Cc1ccc(OCCOCCn2cnc3ccccc3c2=O)cc1C, the “hERG current change (%, negative = inhibition) at 10uM” value rises from -8.44% to -0.362%.

Compared with COc1ccccc1NC(=O)c1ccc2[nH]c(C)c(C)c2c1, C#CCN1C(=O)C(O)(c2c(C)[nH]c3ccccc23)c2ccccc21 (centres unmarked) is higher in “hERG current change (%, negative = inhibition) at 10uM” value: 3.62% for the first, 16.4% for the second.

Going from COc1cccc(N=Nc2ccc(O)c3ncccc23)c1 to COc1ccc(NC(=O)c2cccc(-c3ccc(O)cc3)c2)cn1, the “hERG current change (%, negative = inhibition) at 10uM” value falls from 16.4% to 8.89%.

Compared with CC(C)CNC(=S)NC(=O)c1ccc(Cl)cc1, Cc1ccc(NC(=O)NCc2cccnc2)cc1 is lower in “hERG current change (%, negative = inhibition) at 10uM” value: -3.27% for the first, -25.1% for the second.

Compared with Cc1cc(C(=O)O)c(=O)[nH]c1C, CC1(C)CC(=O)c2cc(C(=O)O)c(=O)n(-c3ccccc3)c2C1 is lower in “hERG current change (%, negative = inhibition) at 10uM” value: 13.9% for the first, 13.2% for the second.

First: Cc1cc(C(=O)OCC(=O)N2CCOCC2)c2ccccc2n1
Second: O=C(c1csc2ccccc12)N1CCN(c2ccc(Cl)c(Cl)c2)CC1
The “hERG current change (%, negative = inhibition) at 10uM” value of the first is higher: 19.1% for the first, -12.5% for the second.

First: CC(=O)OC1CC(c2cc(C(C)(C)C)c(O)c(C(C)(C)C)c2)=NO1 (centres unmarked)
Second: COC(=O)C1=C(C)OC(N)=C(C#N)C1c1cc(C)sc1C (centres unmarked)
The “hERG current change (%, negative = inhibition) at 10uM” value of the first is higher: 0.755% for the first, -0.682% for the second.

Compared with CCN(CC)c1ccc(CN(C(=O)c2cccs2)C2CCS(=O)(=O)C2)cc1 (centres unmarked), O=C(NNC(=O)c1cccs1)c1ccccc1 is higher in “hERG current change (%, negative = inhibition) at 10uM” value: -9.26% for the first, 22% for the second.

Going from Cc1nn(C)c(=O)n1-c1ccccc1 to O=C1CN(O)C(c2ccccc2)=c2cc(Cl)ccc2=N1, the “hERG current change (%, negative = inhibition) at 10uM” value falls from 29.3% to -0.189%.

First: COc1ccc(-c2cc(=Nc3c(C)n(C)n(-c4ccccc4)c3=O)c3ccccc3o2)cc1
Second: Cc1c(N=Cc2c(O)n(Cc3ccco3)c(=O)c3ccccc23)c(=O)n(-c2ccccc2)n1C
The “hERG current change (%, negative = inhibition) at 10uM” value of the first is lower: -68.1% for the first, -5.6% for the second.

Going from COc1cccc(NC(=O)CSc2nc3ccsc3c(=O)n2-c2ccc(C(=O)O)cc2)c1 to COc1ccccc1NS(=O)(=O)c1ccc(C(=O)N2CCN(c3ccccc3O)CC2)cc1, the “hERG current change (%, negative = inhibition) at 10uM” value falls from -1.02% to -14%.

Going from Cc1cc(C)c(C(=O)C[n+]2cccc(C(N)=O)c2)c(C)c1.[Br-] to Cc1c(CCOC(=O)c2cc([N+](=O)[O-])cc([N+](=O)[O-])c2)sc[n+]1CC(=O)c1ccc(Br)cc1.[Br-], the “hERG current change (%, negative = inhibition) at 10uM” value falls from -14.1% to -40.7%.

First: COC(=O)c1ccc(C(NC(=O)c2cccnc2)NC(=O)c2cccnc2)cc1
Second: O=C(Nc1nc(N2C(=O)c3ccccc3C2=O)n(-c2ccccc2)n1)c1ccccc1
The “hERG current change (%, negative = inhibition) at 10uM” value of the first is higher: 21.8% for the first, -19.3% for the second.

Going from O=C(Nc1ccnn1C1CCN(CC2CC=CCC2)CC1)c1ccccc1Cl (centres unmarked) to O=C(C1CCN(S(=O)(=O)N2CCC3(CC2)OCCO3)CC1)N1CCc2ccccc2C1, the “hERG current change (%, negative = inhibition) at 10uM” value rises from -70.7% to -9.28%.

Going from COC(=O)CCN(C(=O)C1C2CC3CC(C2)CC1C3)c1ccccn1 (centres unmarked) to COc1ccccc1NC(=O)Cn1cnc2c(oc3nc4c(cc32)CCCC4)c1=O, the “hERG current change (%, negative = inhibition) at 10uM” value falls from 10% to -24.9%.

First: CC(=O)C1=C(O)C(=O)N(Cc2cccnc2)C1c1ccc(Cl)cc1Cl (centres unmarked)
Second: CCNS(=O)(=O)c1ccc(NC(=O)c2ccc(Cn3cc(Br)cn3)o2)cc1
The “hERG current change (%, negative = inhibition) at 10uM” value of the first is higher: 3.96% for the first, -45.5% for the second.

First: O=C(NS(=O)(=O)c1ccccc1)c1ccccc1
Second: Cc1sc(NC(=O)c2ccccc2)c(C#N)c1-c1ccccc1
The “hERG current change (%, negative = inhibition) at 10uM” value of the first is lower: -0.567% for the first, 14.7% for the second.

Going from COc1ccc(NC(=S)NCc2cccs2)cc1OC to CSc1ccccc1NC(=S)Nc1cccc(C(F)(F)F)c1, the “hERG current change (%, negative = inhibition) at 10uM” value falls from 32.5% to 5.6%.

Going from Cc1c(CCC(=O)N[C@@H](C)C(=O)O)c(=O)oc2cc3oc4c(c3cc12)CCCC4 to COc1ccc2oc(C(=O)N(C)Cc3ccc4c(c3)OCCO4)c(C)c2c1, the “hERG current change (%, negative = inhibition) at 10uM” value falls from 12.2% to -10.5%.

First: CC(=O)N1CCC(=O)N(C(C)C)c2ccccc21
Second: CC(C(=O)Nc1ccccn1)N1C(=O)c2ccccc2S1(=O)=O (centres unmarked)
The “hERG current change (%, negative = inhibition) at 10uM” value of the first is higher: 3.9% for the first, -6.81% for the second.

Compared with CCCCN=C[C@]12CCC(O)CC1(O)CCC1[C@@H]2CC[C@]2(C)[C@H](C3C=CC(=O)O3)CCC12O (some centres unmarked), CCC(=NCCc1c[nH]c2ccccc12)c1c(O)n(C)c(=O)n(C)c1=O is lower in “hERG current change (%, negative = inhibition) at 10uM” value: 5.59% for the first, -10.8% for the second.

First: COc1cccc(C2CC(=O)NC3=C2C(=O)CCC3)c1 (centres unmarked)
Second: COc1cccc(OCCOCCNCCO)c1
The “hERG current change (%, negative = inhibition) at 10uM” value of the first is higher: 9.6% for the first, -6.7% for the second.

First: CN(CC(=O)NNC(=O)CCNS(=O)(=O)c1ccccc1)S(=O)(=O)c1ccc(Cl)cc1
Second: Cc1ccc(S(=O)(=O)NNC(=O)c2cnn(-c3ccccc3)c2C(F)(F)F)cc1
The “hERG current change (%, negative = inhibition) at 10uM” value of the first is lower: -17.8% for the first, 10.3% for the second.

Going from O=C(COC(=O)CCCCCN=C1NS(=O)(=O)c2ccccc21)Nc1ccc(Cl)c(Cl)c1 to O=C(CCCCCN1C(=O)c2ccccc2C1=O)Nc1ccc2c(c1)OCCO2, the “hERG current change (%, negative = inhibition) at 10uM” value falls from 11.5% to -1.8%.

Compared with Cn1c(Cn2nnc(-c3ccccc3)n2)nnc1SCc1ccccc1Cl, Cc1nnc(NC(=O)CSc2nnc(-c3ccc(S(=O)(=O)N4CCCC4)cc3)n2C)s1 is higher in “hERG current change (%, negative = inhibition) at 10uM” value: -34.4% for the first, -3.39% for the second.

Compared with O=C(CCCCCn1c(=S)[nH]c2cc3c(cc2c1=O)OCO3)N1CCN(Cc2ccccc2)CC1, OCC1(CCc2ccccc2)CCCN(C/C=C/c2ccccc2)C1 (centres unmarked) is lower in “hERG current change (%, negative = inhibition) at 10uM” value: 7.9% for the first, -73.5% for the second.

With Cc1ccc(-n2ncc3c(=O)[nH]cnc32)c(C)c1 the “hERG current change (%, negative = inhibition) at 10uM” value was 6.98%.
